# Source: article PMC12136788
# Some of the results follow.
# T1: UNK ZnF1-3 (human, UniProt Q9C0B0 31-174)
# T1 sequence: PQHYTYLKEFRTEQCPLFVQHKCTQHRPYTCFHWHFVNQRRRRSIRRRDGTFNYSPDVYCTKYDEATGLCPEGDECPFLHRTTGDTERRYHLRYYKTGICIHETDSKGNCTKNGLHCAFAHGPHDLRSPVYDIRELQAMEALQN
# B1: 108366600_108366720_658_CDS_ENSG00000106692_ENST00000223528|human|control|control (ssRNA)
# RNA: GGGAGUUCUACAGUCCGACGAUCUUUCCUGUCAAUGUGUUCUUUAAGUCUCAAGUGGCCGUGCCAGAGGUAGUUGCCACUCCUCUCAUGAAAGACUACCAAGUGGAUCGCAUGAGUGGCCAGUUUGCAGAUAUAGUGCAGGGGCAACAGAGGAUUGAGCAUCA
# B2: chr6:119774991:119774992:-_ENSMUSG00000030172_ENSMUST00000032279|mus_hu|FALSE|FALSE (ssRNA)
# RNA: GGGAGUUCUACAGUCCGACGAUCGCCACCUCCAACACUGCUUCCCGAACUCCCUCCCGUACUGUUGGUUCGACGGUGACCCAAGCGAGGGGAACGUGGAAGCCUGGGUGAACGCCCAGGGCUCUGGCUGCUCGGCUCCACCUUCAACAGAGGAUUGAGCAUCA
# B3: chr9:79619141:79619142:-_ENSMUSG00000032328_ENSMUST00000034878|mus_mus|motif|central (ssRNA)
# RNA: GGGAGUUCUACAGUCCGACGAUCAAAUUAAAUGGUGAUGUCAGCAGUGUUACUACUGUUUCUAUAUUUAUGAUUAAUUACGGGCAGUACAACUCCCAGAAGGAAAGAGAUGGAUCCAAUAGUGAUGUAAGCAAUUCCCAAAAACAACAGAGGAUUGAGCAUCA
# B4: chr16:91657502:91657503:+_ENSMUSG00000022961_ENSMUST00000114036|mus_mus|motif|central (ssRNA)
# RNA: GGGAGUUCUACAGUCCGACGAUCUCUAGGUGCUAACCUGUAUGGCCUAGGUGCUAUCCUAUAGGACCUGGGUGCGGUUCGGUAGGGCCUAGGUGAUACCCUAUAGGGAUCCGGAGUUAGUCUGUAGGGAUCAUGGCCUAAUCUCAACAGAGGAUUGAGCAUCA
# B5: chr4:144447494:144447495:+_ENSG00000153147_ENST00000283131|hu_mus|FALSE|FALSE (ssRNA)
# RNA: GGGAGUUCUACAGUCCGACGAUCCCAGUUGUGCAAUGUAGACUUGGGAACCAAAACCAUAUGAGGACCAGGAAUAUUUCUAUAGUGUUUCAUGUAUCCAAGAAGAGAAAUUGUUUGAAGUGUCUUUCCCAAACCCAUUUCAUCCAACAGAGGAUUGAGCAUCA
# B6: 36138157_36138277_3497_3pUTR_ENSG00000100320_ENST00000405409|human|control|control (ssRNA)
# RNA: GGGAGUUCUACAGUCCGACGAUCAUACAACAAAAAUUGUCUUAACAGCAACAAACCAAACUUUGGCUUGGGGUGGGGGGACCCUUAAAAAUGGCCAGUGGACUGGGCAGUUGGUGUCCCCUUAUUCUCUGUCUUCCUCCCCAGCAACAGAGGAUUGAGCAUCA
# B7: chr13:100211666:100211667:-_ENSMUSG00000052727_ENSMUST00000064762|mus_hu|motif|central (ssRNA)
# RNA: GGGAGUUCUACAGUCCGACGAUCGUUGGCAGGAUGGGUGGUGCUUAGUAACUCCCCGAUCUCUUGAUCGGUGAAAAUCUCGGUGAAGUUCUGGAAGGAGAAAGAGCCGGACUGGAGAAUGAGCUCUCCGGUAUUUUCAAAGCACAACAGAGGAUUGAGCAUCA
# B8: chr5:65459698:65459699:+_ENSG00000153914_ENST00000334121|hu_hu|FALSE|FALSE (ssRNA)
# RNA: GGGAGUUCUACAGUCCGACGAUCCAUUACUUCUUCUAACUCCUUAGCUGCAGCCUGAGGUGUCAUCUCAGGGGGUUUUACUAUUGCAUUGUUGGAGUGAUUUAUUUUCAGUGGCCUGUCUCCAAACAUAACUCCAUUAAAAGCCAACAGAGGAUUGAGCAUCA
# B9: chr3:49759264:49759265:-_ENSG00000173540_ENST00000308388|hu_hu|motif|central (ssRNA)
# RNA: GGGAGUUCUACAGUCCGACGAUCGCCAAUAGACUUGUGGGGCAGCACGCUGGCUCCGUUGAGGUAGAGCUCAUCAUUAACGGUGACGUCCUCACCCAGCACUGUCACGUUCUCCAUGCGUACCCACUGACCCACGCGGCAGCGCAACAGAGGAUUGAGCAUCA
# B10: 121206833_121220548_975_CDS_ENSG00000157837_ENST00000353487|human|control|control (ssRNA)
# RNA: GGGAGUUCUACAGUCCGACGAUCCAUGGCGACACAGAGGCCCAUGGCCAGUGCAUCCAUGAGAAGCCAAUGGCCAGUGAGAACCCAGAUGAGGACGAGCAUGACAGACAGAGAGAAUGACAGCAACUCAGCAGCAGUGAAACGCAACAGAGGAUUGAGCAUCA
# B11: chr7:127875444:127875445:+_ENSMUSG00000046096_ENSMUST00000060175|mus_mus|FALSE|FALSE (ssRNA)
# RNA: GGGAGUUCUACAGUCCGACGAUCACGUGUGUAAAGCAUUAGAGGGAAUAUUGUAUUGCUUAAGAGUUUGGUGAAGAUCUACUAAUACAGAUAAAAUGCGAUUUUUAUGGAAGAGCAGAACUAGUGUUGUAAAUAGCCAAAACACAACAGAGGAUUGAGCAUCA
# B12: chrX:77158196:77158197:+_ENSG00000131174_ENST00000481445|hu_mus|FALSE|FALSE (ssRNA)
# RNA: GGGAGUUCUACAGUCCGACGAUCUCCAAUUUGUGUGGCUGUAUAUGUCCAUGUAGAAACACAGAAGAUGGCUCCACCUGCUAAUAUAGCAUUCCCAUAUUUGUCAUGGAAACUAGGUGCCCUCUUCUGGUGGCUCUGCCUUGCCAACAGAGGAUUGAGCAUCA
# B13: chr9:110451855:110451856:+_ENSMUSG00000044791_ENSMUST00000153838|mus_hu|motif|central (ssRNA)
# RNA: GGGAGUUCUACAGUCCGACGAUCAACUGGCAUAGACAUGAGUUUAUCUUGGUGUGGUGACACCAGAGGUUCUGUUUCUCGGAAUGGGCUUUCUGACUUCUUAUGCAGCAUGCAGGUAUCAUCCAAGUCUUUUUCUUUGCACCUCAACAGAGGAUUGAGCAUCA
# B14: 75303403_75303614_765_CDS_ENSMUSG00000020850_ENSMUST00000018449|mouse|control|control (ssRNA)
# RNA: GGGAGUUCUACAGUCCGACGAUCUAAGAUGUUGUCGGCAUAAUCCAGGGGCGGUUCCUCGUCAUCGAAAGGGGGGAAACGCAUCCUCUUGAAAUGCCUCCUGUCUCUUUUUUCUCUACGCAUCAUGAUCCACAUUGACCCCCACAACAGAGGAUUGAGCAUCA
# Target: T1, UNK ZnF1-3
# Assay: nsRBNS (natural sequence RNA bind-n-seq); RBNS binding buffer (assumed for nsRBNS): 25 mM Tris pH 7.5, 150 mM KCl, 3 mM MgCl2, 0.01% Triton X-100, 500 ug/ml BSA, 20 U/ml SUPERase-In, 4 C; UNK is unkempt and MSI1 is Musashi-1; names of the RNAs are library labels; protein concentration not given here; high values mean tight binding
row,Binder,binding signal
1,B1,0.869 enrichment R
2,B2,0.762 enrichment R
3,B3,1.83 enrichment R
4,B4,0.313 enrichment R
5,B5,1.57 enrichment R
6,B6,1.22 enrichment R
7,B7,1.15 enrichment R
8,B8,0.735 enrichment R
9,B9,0.91 enrichment R
10,B10,1.65 enrichment R
11,B11,1.36 enrichment R
12,B12,0.59 enrichment R
13,B13,0.743 enrichment R
14,B14,0.66 enrichment R
